Paper PMC4336329 (PLoS ONE, 2015)
The campaign covered roughly 310,000 compounds. About 14,000 (4.5%) showed an effect of 50% or more. The effect is printed as a negative number. This is one part of the list.

target: human ether-à-go-go-related gene (hERG) potassium channel (human, UniProt Q12809); assay: primary screen, population patch clamp on CHO cells stably expressing hERG
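Further: peak tail current of the secondary pulse compared with the same well before compound.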

Chain of human ether-à-go-go-related gene (hERG) potassium channel (Q12809 whole entry, looked up): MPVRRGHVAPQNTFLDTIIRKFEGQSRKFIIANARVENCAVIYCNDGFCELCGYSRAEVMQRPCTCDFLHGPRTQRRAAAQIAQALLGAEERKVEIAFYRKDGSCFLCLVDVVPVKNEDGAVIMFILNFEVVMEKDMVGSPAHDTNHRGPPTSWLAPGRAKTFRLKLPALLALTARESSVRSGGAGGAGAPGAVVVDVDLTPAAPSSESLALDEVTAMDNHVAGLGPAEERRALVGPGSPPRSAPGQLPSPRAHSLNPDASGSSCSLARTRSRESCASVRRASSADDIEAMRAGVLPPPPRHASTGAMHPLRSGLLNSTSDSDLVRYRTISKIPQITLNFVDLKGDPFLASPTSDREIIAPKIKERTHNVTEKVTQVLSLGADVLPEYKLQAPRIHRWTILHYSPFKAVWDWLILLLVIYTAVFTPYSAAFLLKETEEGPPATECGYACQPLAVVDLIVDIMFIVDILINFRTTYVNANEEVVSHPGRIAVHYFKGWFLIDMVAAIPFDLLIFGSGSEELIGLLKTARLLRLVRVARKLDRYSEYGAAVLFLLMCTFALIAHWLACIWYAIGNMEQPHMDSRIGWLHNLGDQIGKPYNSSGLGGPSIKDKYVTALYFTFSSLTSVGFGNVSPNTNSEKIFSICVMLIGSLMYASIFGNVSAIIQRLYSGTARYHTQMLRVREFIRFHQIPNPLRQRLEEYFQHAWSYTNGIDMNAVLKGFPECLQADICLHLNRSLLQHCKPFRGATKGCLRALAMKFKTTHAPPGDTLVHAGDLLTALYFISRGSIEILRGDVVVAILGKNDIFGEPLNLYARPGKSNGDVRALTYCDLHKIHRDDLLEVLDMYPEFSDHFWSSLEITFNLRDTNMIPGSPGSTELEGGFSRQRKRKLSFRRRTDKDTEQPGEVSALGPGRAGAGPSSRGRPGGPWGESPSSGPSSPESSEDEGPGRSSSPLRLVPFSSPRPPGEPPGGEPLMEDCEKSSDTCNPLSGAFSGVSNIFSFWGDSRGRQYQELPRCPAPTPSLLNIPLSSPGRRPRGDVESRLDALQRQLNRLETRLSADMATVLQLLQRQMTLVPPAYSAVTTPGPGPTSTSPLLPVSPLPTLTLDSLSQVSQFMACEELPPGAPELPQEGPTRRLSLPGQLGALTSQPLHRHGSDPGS

SMILES | hERG current change (%, negative = inhibition) at 10uM [%]
Nc1c(Br)cc([N+](=O)[O-])cc1[N+](=O)[O-] | 10.8
O=C(NN1C(=O)NC2(CCCCC2)C1=O)c1cc(F)cc(F)c1 | -2.73
COc1cc(CNC(C)(C)CO)ccc1OCC(=O)Nc1ccc(Br)cc1 | -38.3
Cn1c(Sc2ccc(Br)cc2)c(C=O)c2ccccc21 | -3.98
CC(C(=O)NCCS(=O)(=O)c1ccc(Cl)cc1)S(=O)(=O)c1ccc(Cl)cc1 (stereo not shown) | -27.8
CCOc1ccc(N(CC(=O)Nc2ccc(OC)cc2)S(=O)(=O)c2c(C)[nH]c(=O)[nH]c2=O)cc1 | 1.99
Cc1coc2c1c(C)cc1oc(=O)c(CC(=O)NCCCCCC(=O)O)c(C)c12 | 22.9
C=CCOc1ccc(/C=C2\SC(=S)N(NS(=O)(=O)c3ccccc3)C2=O)cc1 | 4.47
C=CCn1c(SCC(=O)Nc2sccc2C(N)=O)nc2sc(C)c(C)c2c1=O | 13
Cc1ccc(NC(=O)Cn2nc(-c3ccccc3)nc2-c2ccccc2)c(C)c1 | 20
CCOC(=O)C1CCCN(C(=O)CN2C(=O)c3ccccc3C2=O)C1 (stereo not shown) | -0.575
O=C(NN=C1CCCCCC1)c1ccncc1 | 11.3
c1ccc(-c2nc(C3CCCCC3)c3sccc3n2)cc1 | 9.26
CCn1c(SCc2c(Cl)cccc2Cl)nnc1-c1nn(-c2ccccc2)ccc1=O | -66.1
CCC(=O)N1CCc2cc(S(=O)(=O)NC(C(=O)NCc3ccc(F)cc3)C(C)C)ccc21 (stereo not shown) | 9.46
O=C1N=C(c2ccccc2)S/C1=C\c1cccs1 | 5.19
Cc1cccc(-c2cc(C(=O)Nc3ccc4c(c3)OCCO4)c3ccccc3n2)c1 | -2.65
O=C1CC(c2ccccc2)CC(=O)C1Sc1ccc(Cl)cc1 (stereo not shown) | -2.22
CCC(=O)Nc1cccc(C(=O)OCC(=O)c2ccccc2Cl)c1 | -8.8
CCOc1ccc(C(=O)NC2CCN(C(=S)Nc3ccccc3C)CC2)cc1 | 36.2
O=C(O)c1ccccc1-c1ccccc1C(=O)NCCc1ccccc1 | 8.04
CCC1CCCCN1S(=O)(=O)c1ccc2[nH]c(=O)ccc2c1 (stereo not shown) | -60.1

SMILES | hERG current change (%, negative = inhibition) at 10uM [%]
Cc1ccc(C#N)c(SCc2cc3c(cc2Cl)OCO3)n1 | 16.5
Cc1nnc2c3ccccc3c(-c3ccc(O)cc3)nn12 | 1.7
CCCCC(=O)Nc1ccc2c(c1)OCCO2 | 10.4
C=CCSc1nnc2c(n1)OC(c1c(C)[nH]n(-c3ccccc3)c1=O)Nc1ccccc1-2 (stereo not shown) | -33.6
Cn1nnnc1SCC(=O)Nc1ccc2c(c1)OCCO2 | 20.8
CCOC(=O)N1CCC(NC(=O)c2cc(C(=O)NC3CCN(Cc4ccccc4)CC3)ccc2CO)CC1 | 7.41
O=C(c1ccccc1)N1CCCCC(S(=O)(=O)c2ccccc2)C1=O (stereo not shown) | -9.48
NC(=O)CSc1nc2cc3c(cc2c(=O)n1CCCC(=O)NCc1ccc2c(c1)OCO2)OCO3 | -31.6
CC1CCCN(CC(=O)Nc2ccc(S(=O)(=O)N3CCCC3)cc2)C1 (stereo not shown) | 1.82
COc1ccc(C(=O)Nc2ccc(Cl)cc2C(=O)N2CCOCC2)cc1 | 4.85
CCOC(=O)Cc1csc(NC(NC(=O)CC)(C(F)(F)F)C(F)(F)F)n1 | 7.05
O=C1COc2cc(ccc2[N+](=O)[O-])Oc2ccc(cc2Cl)C(=O)CCCCO1 | 10.8
CCN1CCC2(CCNC2)C1.Cl (stereo not shown) | -10.9
CCn1c(SCC(=O)Nc2ccc(OC)cc2)nc2nc3c(cc2c1=O)CCCC3 | -62.6
COc1cc2c(cc1OC)C(c1ccccc1)CC2=O (stereo not shown) | 7.03
Cc1ccc(N(C(=O)CCC(=O)Nc2cc(C)on2)C(C(=O)NC2CCCC2)c2ccncc2)cc1 (stereo not shown) | -3.7
Nc1nnc(SCc2ccccc2)n1-c1ccccc1 | -19.9
O=C(O)CCn1c(-c2ccccn2)nc2ccccc21 | 13.9
O=C(Nc1ccc(Cl)cc1)C1C2C=CC3(O2)C1C(=O)N(CCN1CCCCC1)C3C(=O)NC1CCCCC1 (stereo not shown) | -44.1
CN(C)c1ccc(CN(C(=O)COc2ccc(Br)cc2)C2CCS(=O)(=O)C2)cc1 (stereo not shown) | -17.7
O=C(COC(=O)CSc1ccc([N+](=O)[O-])cc1)NCc1ccco1 | 12.5
